This is one part of the list.
What was measured:
Assay in all cases: glycan array binding signal (z-score within array); higher = stronger binding
Settings in all cases: glycan notation: IUPAC condensed, linker removed
[1] = target: GlcNAc(b1-2)Gal(b1-3)GalNAc
Outline: (§1)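 From the Consortium for Functional Glycomics database, 3228 arrays were curated, keeping only those whose protein sequence was available. Binding is given as a within-array Z-score averaged across arrays sharing a protein sequence and across linkers. Negative Z-scores can be read as non-binding.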

[2] = target: GlcNAc(b1-2)Man(a1-3)[GlcNAc(b1-2)Man(a1-6)]Man(b1-4)GlcNAc(b1-4)GlcNAc
Outline: as §1

[3] = target: GlcNAc(b1-2)Man(a1-3)[GlcNAc(b1-2)Man(a1-6)]Man(b1-4)GlcNAc(b1-4)[Fuc(a1-6)]GlcNAc
Outline: as §1

[4] = target: GlcNAc(b1-2)Man(a1-3)[GlcNAc(b1-4)][GlcNAc(b1-2)Man(a1-6)]Man(b1-4)GlcNAc(b1-4)GlcNAc
Outline: as §1

[5] = target: GlcNAc(b1-2)Man(a1-3)[GlcNAc(b1-4)][GlcNAc(b1-2)Man(a1-6)]Man(b1-4)GlcNAc(b1-4)[Fuc(a1-6)]GlcNAc
Outline: as §1

[6] = target: GlcNAc(b1-2)[GlcNAc(b1-4)]Man(a1-3)[GlcNAc(b1-2)Man(a1-6)]Man(b1-4)GlcNAc(b1-4)GlcNAc
Outline: as §1

[7] = target: GlcNAc(b1-2)[GlcNAc(b1-4)]Man(a1-3)[GlcNAc(b1-4)][GlcNAc(b1-2)Man(a1-6)]Man(b1-4)GlcNAc(b1-4)GlcNAc
Outline: as §1

[8] = target: GlcNAc(b1-2)[GlcNAc(b1-4)]Man(a1-3)[GlcNAc(b1-4)][GlcNAc(b1-2)[GlcNAc(b1-6)]Man(a1-6)]Man(b1-4)GlcNAc(b1-4)GlcNAc
Outline: as §1

[9] = target: GlcNAc(b1-2)[GlcNAc(b1-4)]Man(a1-3)[GlcNAc(b1-4)][GlcNAc(b1-2)[GlcNAc(b1-6)]Man(a1-6)]Man(b1-4)GlcNAc(b1-4)[Fuc(a1-6)]GlcNAc
Outline: as §1

[10] = target: GlcNAc(b1-2)[GlcNAc(b1-6)]Man(a1-6)[GlcNAc(b1-2)Man(a1-3)]Man(b1-4)GlcNAc(b1-4)GlcNAc
Outline: as §1

[11] = target: GlcNAc(b1-2)[GlcNAc(b1-6)]Man(a1-6)[GlcNAc(b1-2)Man(a1-3)]Man(b1-4)GlcNAc(b1-4)[Fuc(a1-6)]GlcNAc
Outline: as §1

[12] = target: GlcNAc(b1-2)[GlcNAc(b1-6)]Man(a1-6)[GlcNAc(b1-4)][GlcNAc(b1-2)Man(a1-3)]Man(b1-4)GlcNAc(b1-4)GlcNAc
Outline: as §1

GlcNAc(b1-3)Fuc = target: GlcNAc(b1-3)Fuc
Outline: as §1

GlcNAc(b1-3)Gal = target: GlcNAc(b1-3)Gal
Outline: as §1

[13] = target: GlcNAc(b1-3)Gal(b1-3)GalNAc
Outline: as §1

GlcNAc(b1-3)Gal(b1-4)Glc = target: GlcNAc(b1-3)Gal(b1-4)Glc
Outline: as §1

[14] = target: GlcNAc(b1-3)Gal(b1-4)GlcNAc
Outline: as §1

[15] = target: GlcNAc(b1-3)Gal(b1-4)GlcNAc(b1-2)Man(a1-3)[GlcNAc(b1-3)Gal(b1-4)GlcNAc(b1-2)Man(a1-6)]Man(b1-4)GlcNAc(b1-4)GlcNAc
Outline: as §1

[16] = target: GlcNAc(b1-3)Gal(b1-4)GlcNAc(b1-2)Man(a1-3)[GlcNAc(b1-3)Gal(b1-4)GlcNAc(b1-2)Man(a1-6)]Man(b1-4)GlcNAc(b1-4)[Fuc(a1-6)]GlcNAc
Outline: as §1

[17] = target: GlcNAc(b1-3)Gal(b1-4)GlcNAc(b1-2)[GlcNAc(b1-3)Gal(b1-4)GlcNAc(b1-6)]Man(a1-6)[GlcNAc(b1-3)Gal(b1-4)GlcNAc(b1-2)Man(a1-3)]Man(b1-4)GlcNAc(b1-4)GlcNAc
Outline: as §1

[18] = target: GlcNAc(b1-3)Gal(b1-4)GlcNAc(b1-3)Gal(b1-4)GlcNAc
Outline: as §1

[19] = target: GlcNAc(b1-3)Gal(b1-4)GlcNAc(b1-3)Gal(b1-4)GlcNAc(b1-2)Man(a1-3)[GlcNAc(b1-3)Gal(b1-4)GlcNAc(b1-3)Gal(b1-4)GlcNAc(b1-2)Man(a1-6)]Man(b1-4)GlcNAc(b1-4)GlcNAc
Outline: as §1

[20] = target: GlcNAc(b1-3)Gal(b1-4)GlcNAc(b1-3)Gal(b1-4)GlcNAc(b1-2)Man(a1-3)[GlcNAc(b1-3)Gal(b1-4)GlcNAc(b1-3)Gal(b1-4)GlcNAc(b1-2)Man(a1-6)]Man(b1-4)GlcNAc(b1-4)[Fuc(a1-6)]GlcNAc
Outline: as §1

[21] = target: GlcNAc(b1-3)Gal(b1-4)GlcNAc(b1-3)Gal(b1-4)GlcNAc(b1-2)[GlcNAc(b1-3)Gal(b1-4)GlcNAc(b1-3)Gal(b1-4)GlcNAc(b1-6)]Man(a1-6)[GlcNAc(b1-3)Gal(b1-4)GlcNAc(b1-3)Gal(b1-4)GlcNAc(b1-2)Man(a1-3)]Man(b1-4)GlcNAc(b1-4)[Fuc(a1-6)]GlcNAc
Outline: as §1

[22] = target: GlcNAc(b1-3)Gal(b1-4)GlcNAc(b1-3)Gal(b1-4)GlcNAc(b1-3)Gal(b1-4)GlcNAc(b1-2)Man(a1-3)[GlcNAc(b1-3)Gal(b1-4)GlcNAc(b1-3)Gal(b1-4)GlcNAc(b1-3)Gal(b1-4)GlcNAc(b1-2)Man(a1-6)]Man(b1-4)GlcNAc(b1-4)GlcNAc
Outline: as §1

[23] = target: GlcNAc(b1-3)Gal(b1-4)GlcNAc(b1-3)Gal(b1-4)GlcNAc(b1-3)Gal(b1-4)GlcNAc(b1-2)Man(a1-3)[GlcNAc(b1-3)Gal(b1-4)GlcNAc(b1-3)Gal(b1-4)GlcNAc(b1-3)Gal(b1-4)GlcNAc(b1-2)Man(a1-6)]Man(b1-4)GlcNAc(b1-4)[Fuc(a1-6)]GlcNAc
Outline: as §1

[24] = target: GlcNAc(b1-3)Gal(b1-4)GlcNAc(b1-3)Gal(b1-4)GlcNAc(b1-3)Gal(b1-4)GlcNAc(b1-2)[GlcNAc(b1-3)Gal(b1-4)GlcNAc(b1-3)Gal(b1-4)GlcNAc(b1-3)Gal(b1-4)GlcNAc(b1-6)]Man(a1-6)[GlcNAc(b1-3)Gal(b1-4)GlcNAc(b1-3)Gal(b1-4)GlcNAc(b1-3)Gal(b1-4)GlcNAc(b1-2)Man(a1-3)]Man(b1-4)GlcNAc(b1-4)[Fuc(a1-6)]GlcNAc
Outline: as §1

[25] = target: GlcNAc(b1-3)Gal(b1-4)GlcNAc(b1-3)Gal(b1-4)GlcNAc(b1-3)Gal(b1-4)GlcNAc(b1-3)Gal(b1-4)GlcNAc(b1-2)Man(a1-3)[GlcNAc(b1-3)Gal(b1-4)GlcNAc(b1-3)Gal(b1-4)GlcNAc(b1-3)Gal(b1-4)GlcNAc(b1-3)Gal(b1-4)GlcNAc(b1-2)Man(a1-6)]Man(b1-4)GlcNAc(b1-4)GlcNAc
Outline: as §1

[26] = target: GlcNAc(b1-3)Gal(b1-4)GlcNAc(b1-3)Gal(b1-4)GlcNAc(b1-3)Gal(b1-4)GlcNAc(b1-3)Gal(b1-4)GlcNAc(b1-2)Man(a1-3)[GlcNAc(b1-3)Gal(b1-4)GlcNAc(b1-3)Gal(b1-4)GlcNAc(b1-3)Gal(b1-4)GlcNAc(b1-3)Gal(b1-4)GlcNAc(b1-2)Man(a1-6)]Man(b1-4)GlcNAc(b1-4)[Fuc(a1-6)]GlcNAc
Outline: as §1

[27] = target: GlcNAc(b1-3)Gal(b1-4)GlcNAc(b1-3)Gal(b1-4)GlcNAc(b1-3)Gal(b1-4)GlcNAc(b1-3)Gal(b1-4)GlcNAc(b1-2)[GlcNAc(b1-3)Gal(b1-4)GlcNAc(b1-3)Gal(b1-4)GlcNAc(b1-3)Gal(b1-4)GlcNAc(b1-3)Gal(b1-4)GlcNAc(b1-6)]Man(a1-6)[GlcNAc(b1-3)Gal(b1-4)GlcNAc(b1-3)Gal(b1-4)GlcNAc(b1-3)Gal(b1-4)GlcNAc(b1-3)Gal(b1-4)GlcNAc(b1-2)Man(a1-3)]Man(b1-4)GlcNAc(b1-4)[Fuc(a1-6)]GlcNAc
Outline: as §1

[28] = target: GlcNAc(b1-3)Gal(b1-4)GlcNAc(b1-3)Gal(b1-4)GlcNAc(b1-3)GalNAc
Outline: as §1

[29] = target: GlcNAc(b1-3)Gal(b1-4)GlcNAc(b1-3)GalNAc
Outline: as §1

[30] = target: GlcNAc(b1-3)Gal(b1-4)GlcNAc(b1-3)[GlcNAc(b1-3)Gal(b1-4)GlcNAc(b1-3)]GalNAc
Outline: as §1

[31] = target: GlcNAc(b1-3)Gal(b1-4)GlcNAc(b1-6)[Gal(b1-3)]GalNAc
Outline: as §1

[32] = target: GlcNAc(b1-3)Gal(b1-4)GlcNAc(b1-6)[GlcNAc(b1-3)Gal(b1-3)]GalNAc
Outline: as §1

[33] = target: GlcNAc(b1-3)Gal(b1-4)GlcNAc(b1-6)[GlcNAc(b1-3)]Gal(b1-4)GlcNAc
Outline: as §1

GlcNAc(b1-3)GalNAc = target: GlcNAc(b1-3)GalNAc
Outline: as §1

B1: Clone730PsrP (Streptococcus pneumoniae) (protein)
chain: MDHHHHHHHHHHASENLYFQGAMVVGSQTAAATEATAKKVEEDRKKPASDYVASVTNVNLQSYAKRRKRSVDSIEQLLASIKNAAVFSGNTIVNGAPAINASLNIAKSETKVYTGEGVDSVYRVPIYYKLKVTNDGSKLTFTYTVTYVNPKTNDLGNISSMRPGYSIYNSGTSTQTMLTLGSDLGKPSGVKNYITDKNGRQVLSYNTSTMTTQGSGYTWGNGAQMNGFFAKKGYGLTSSWTVPITGTDTSFTFTPYAARTDRIGINYFNGGGKVVESSTT
glycan array binding signal (z-score) [1]: 0.582 | glycan array binding signal (z-score) [2]: -0.204 | glycan array binding signal (z-score) [3]: -0.183 | glycan array binding signal (z-score) [4]: -0.279 | glycan array binding signal (z-score) [5]: -0.472 | glycan array binding signal (z-score) [6]: -0.398 | glycan array binding signal (z-score) [7]: -0.608 | glycan array binding signal (z-score) [8]: -0.485 | glycan array binding signal (z-score) [9]: -0.565 | glycan array binding signal (z-score) [10]: -0.425 | glycan array binding signal (z-score) [11]: -0.31 | glycan array binding signal (z-score) [12]: -0.462 | glycan array binding signal (z-score) (GlcNAc(b1-3)Fuc): 0.545 | glycan array binding signal (z-score) (GlcNAc(b1-3)Gal): -0.502 | glycan array binding signal (z-score) [13]: -0.014 | glycan array binding signal (z-score) (GlcNAc(b1-3)Gal(b1-4)Glc): -0.514 | glycan array binding signal (z-score) [14]: -0.445 | glycan array binding signal (z-score) [15]: -0.226 | glycan array binding signal (z-score) [16]: 0.003 | glycan array binding signal (z-score) [17]: -0.371 | glycan array binding signal (z-score) [18]: -0.488 | glycan array binding signal (z-score) [19]: 0.031 | glycan array binding signal (z-score) [20]: -0.187 | glycan array binding signal (z-score) [21]: -0.544 | glycan array binding signal (z-score) [22]: -0.481 | glycan array binding signal (z-score) [23]: -0.109 | glycan array binding signal (z-score) [24]: -0.446 | glycan array binding signal (z-score) [25]: 0.123 | glycan array binding signal (z-score) [26]: -0.439 | glycan array binding signal (z-score) [27]: -0.445 | glycan array binding signal (z-score) [28]: -0.583 | glycan array binding signal (z-score) [29]: -0.186 | glycan array binding signal (z-score) [30]: 0.149 | glycan array binding signal (z-score) [31]: -0.413 | glycan array binding signal (z-score) [32]: -0.367 | glycan array binding signal (z-score) [33]: -0.496 | glycan array binding signal (z-score) (GlcNAc(b1-3)GalNAc): -0.331
